# Where “and” joins values, the source holds several entries; their conditions need not be identical. Identical values can stand only once. In all, about 240,000 compounds went through this assay and about 20 (0.008%) were called active. This list was built around the results that the source calls inconclusive (neither active nor inactive); the mix of calls is not that of the screen. The call rests on the fitted dose curve; in most records, active means well fitted inhibition curve with a large enough effect; inconclusive means small, poorly fitted or top-dose-only effect, or effect the other way; inactive means flat fitted curve, though single readings scatter. Where the call is inconclusive, the potency comes from a doubtful curve fit.
# Target: Alpha-galactosidase A (Homo sapiens) (UniProt P06280)
# Chain of UniProt P06280 (P06280 whole entry, looked up): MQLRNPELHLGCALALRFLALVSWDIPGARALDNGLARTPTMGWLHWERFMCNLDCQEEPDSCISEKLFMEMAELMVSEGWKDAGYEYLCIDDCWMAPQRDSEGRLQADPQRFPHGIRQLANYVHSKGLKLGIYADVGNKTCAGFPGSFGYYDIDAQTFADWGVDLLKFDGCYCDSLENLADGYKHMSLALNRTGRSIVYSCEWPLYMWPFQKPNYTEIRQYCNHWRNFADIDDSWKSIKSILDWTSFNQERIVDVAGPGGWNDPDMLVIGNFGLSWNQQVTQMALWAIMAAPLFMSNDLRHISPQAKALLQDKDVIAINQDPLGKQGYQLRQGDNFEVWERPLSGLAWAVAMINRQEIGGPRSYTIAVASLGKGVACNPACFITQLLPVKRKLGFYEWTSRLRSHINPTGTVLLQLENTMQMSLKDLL
# Assay: qHTS Assay for Inhibitors and Activators of Human alpha-Galactosidase From Spleen Homogenate;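 on activity change, negative = inhibition: 0% = enzyme with vehicle and -100% = no enzyme basal signal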
# Settings: 4MU-alpha-Gal fluorescence, 40 min; activity change, negative = inhibition: at 80 µM (top of the series)
# In short: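 Inhibition or activation of alpha-galactosidase in human spleen homogenate is scored by 4-MU fluorescence after 40 min at 37C, pH 5.0, with 1 mM substrate. AC50s come from concentration-response fitted to the Hill equation.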
# Potency means the concentration at half of the fitted maximal effect; tags describe the fitted curve by direction and shape.
SMILES,Potency,"activity change, negative = inhibition"
O=C(O)Cc1c(O)ccc2ccccc12,"inconclusive: 25.1 µM [activator, single point]",–
O=C(NCC(=O)N(Cc1cccs1)C(C(=O)NC1CCCCC1)c1ccco1)c1ccco1 (centres undefined),"inconclusive: 50.1 µM [inhibitor, single point]",–
COc1ccccc1NS(=O)(=O)c1cc([N+](=O)[O-])ccc1N/N=C/c1c[nH]c2ccccc12,"inconclusive: 2.82 µM [activator, partial curve]",–
Cc1ccccc1Cn1cc(NC(=O)c2cc(C3CC3)on2)cn1,inactive,–
CCn1cc(C2C(C(=O)Nc3cc(C)ccn3)=C(C)NC3=C2C(=O)CC(C)(C)C3)c(C)n1 (centres undefined),"inconclusive: 31.6 µM [activator, single point]",–
CN(C)CCCn1c(N)c(C#N)c2nc3ccccc3nc21,"inconclusive: 15.8 µM [activator, partial curve]",–
CC(/C=N/NC(=O)CN1CCN(Cc2ccc(Cl)cc2)CC1)=C\c1ccco1,"inconclusive: 39.8 µM [inhibitor, single point]",–
COC(=O)C1=C(C)NC2=C(C(=O)C(C(=O)OC)C(c3ccc(OC)cc3)C2)C1c1ccccn1 (centres undefined),"inconclusive: 11.2 µM [activator, single point]",–
Cc1ccc(S(=O)(=O)NCc2ccc(C(=O)N3CCN(Cc4ccccc4)CC3)cc2)cc1,inactive,–
O=c1cnc2cncnc2n1Cc1ccc(F)cc1,inactive,–
C=CCOC(=O)C1=C[C@@H](C2CCCCC2)C[C@@H](OCc2ccc(CO)cc2)O1,inactive,–
COC/C=C/C1=CC2=CC(=O)C(C)(OC(=O)c3cnc4ccccc4n3)C(=O)C2=CN1Cc1ccc2c(c1)OCO2 (centres undefined),–,inactive: 0.616% [at 17.5 µM]
CCN1CCN(C(=O)c2cn(CCOC)c(=O)c3c2c2ccccc2n3C)CC1,"inconclusive: 39.8 µM [activator, partial curve]",–
C=C(C)c1cccc(C(C)(C)NC(=O)NC(c2ccccc2)c2ccc(OC)cc2)c1 (centres undefined),"inconclusive: 44.7 µM [inhibitor, single point]",–
CCc1nnc(NS(=O)(=O)c2ccc(N3C(=O)c4ccccc4C3=O)cc2)s1,inactive,–
c1ccc(C2CC(c3cccs3)=NN2c2ccccc2)cc1 (centres undefined),"inconclusive: 3.98 µM [activator, full curve, poor fit]",–
Cc1cc(C(=O)CSc2nnc(-c3ccccc3F)o2)c(C)n1Cc1cccs1,inactive,–
O=C(Nc1ccc(Cc2ccncc2)cc1)C1CC1,"inconclusive: 1.58 µM [activator, full curve, poor fit]",–
CCc1nnc(NC(=O)Cn2nc(-c3ccccc3OC)ccc2=O)s1,"inconclusive: 35.5 µM [inhibitor, single point]",–
COc1cc(OC)c(-c2nc3ccccc3s2)cc1OC,"inconclusive: 39.8 µM [activator, single point]",–
COc1ccc(CCNC(=O)CSc2ccccc2)cc1OC,inactive,–
COCCn1c(N)c(C(=O)NCc2cccs2)c2nc3ccccc3nc21,"inconclusive: 39.8 µM [activator, partial curve]",–

SMILES,Potency,"activity change, negative = inhibition"
CCCCOc1cc(C)nc(NCc2ccccc2)n1,"inconclusive: 7.94 µM [activator, full curve]",–
Nn1c(Cc2ccccc2F)nnc1SCC(=O)N1CC(=O)Nc2ccccc21,inactive,–
Cc1ccc(C)c(C(=O)CSc2n[nH]c(C)n2)c1,"inconclusive: 28.2 µM [inhibitor, partial curve]",–
COc1ccc(N2C(=O)CC(NC3CCCCNC3=O)C2=O)cc1 (centres undefined),inactive,–
CN1CCc2c(sc(N)c2C(N)=O)C1,"inconclusive: 44.7 µM [activator, single point]",–
COc1cc(OC)c2ccc(=O)oc2c1,"inconclusive: 14.1 µM [activator, partial curve]",–
CC(=O)Oc1ccc(C2C3=C(CC(C)(C)CC3=O)Nc3cc4c(cc32)OCCO4)cc1 (centres undefined),"inconclusive: 35.5 µM [activator, single point]",–
CC(=O)Nc1ccc2cc3ccc(NC(C)=O)cc3nc2c1,"inconclusive: 35.5 µM [activator, partial curve]",–
O=S(=O)(Nc1ccc(F)cc1)N1CCCCCC1,"inconclusive: 35.5 µM [inhibitor, single point]",–
COc1ccccc1CNc1ncncc1-c1ccoc1,"inconclusive: 56.2 µM [inhibitor, single point]",–
CCOc1ccccc1N1CCN(S(=O)(=O)c2ccc3c4c(cccc24)C(=O)N3)CC1,"inconclusive: 39.8 µM [inhibitor, single point]",–
COc1cc2nc(N3CCN(C(=O)C4COc5ccccc5O4)CC3)nc(N)c2cc1OC (centres undefined),"inconclusive: 50.1 µM [activator, single point] and inconclusive: 35.5 µM [activator, partial curve]",–
CCNc1ncc2nc(-c3ccc(F)cc3)c(=O)n(C[C@H]3CCCO3)c2n1,inactive,–
COc1cc(NC(=O)C2CC(c3cccc(OC)c3OC)=NO2)cc(OC)c1OC (centres undefined),"inconclusive: 39.8 µM [inhibitor, partial curve]",–
N#Cc1c(NC(=O)c2cccnc2)sc2c1CCC2,inactive,–
COC(=O)Cn1c(CCC(=O)O)ccc1-c1ccccc1,"inconclusive: 31.6 µM [activator, single point]",–
Cc1cccc(N=c2oc3cc(O)ccc3cc2C(N)=O)c1,"inconclusive: 31.6 µM [activator, partial curve]",–
CC1(C(=O)O)Sc2[nH]c(=O)sc2C2c3ccccc3OC(=O)C21 (centres undefined),inactive,–
O=C1CCCC=C1[C@@H](O)CCOCc1ccccc1,–,inactive: 5.41% [at 17.5 µM]
CCCN(CCC)CCNC(=O)CCC(=O)Nc1ccc2nc(N3CCN(C)CC3)cc(C)c2c1,"inconclusive: 22.4 µM [activator, partial curve]",–
O=C1c2ccccc2-c2cccc(C(=O)N3CCCCC3)c21,"inconclusive: 7.94 µM [activator, partial curve]",–
CC(=O)c1c(C)cc(C)c(CSc2nnc(-c3ccco3)o2)c1C,"inconclusive: 44.7 µM [inhibitor, single point]",–

# From PubChem BioAssay AID2107 (National Center for Advancing Translational Sciences (NCATS), 2009)
